Laboratory results published in article PMC4336329 (PLoS ONE, 2015).
The campaign covered roughly 310,000 compounds. About 2,200 (0.71%) showed an effect of 50% or more. Effects have a minus sign here. This is one part of the list.

molecular target: human ether-à-go-go-related gene (hERG) potassium channel (human, UniProt Q12809); experiment: primary screen, population patch clamp on CHO cells stably expressing hERG
Sequence (Q12809 whole entry, looked up): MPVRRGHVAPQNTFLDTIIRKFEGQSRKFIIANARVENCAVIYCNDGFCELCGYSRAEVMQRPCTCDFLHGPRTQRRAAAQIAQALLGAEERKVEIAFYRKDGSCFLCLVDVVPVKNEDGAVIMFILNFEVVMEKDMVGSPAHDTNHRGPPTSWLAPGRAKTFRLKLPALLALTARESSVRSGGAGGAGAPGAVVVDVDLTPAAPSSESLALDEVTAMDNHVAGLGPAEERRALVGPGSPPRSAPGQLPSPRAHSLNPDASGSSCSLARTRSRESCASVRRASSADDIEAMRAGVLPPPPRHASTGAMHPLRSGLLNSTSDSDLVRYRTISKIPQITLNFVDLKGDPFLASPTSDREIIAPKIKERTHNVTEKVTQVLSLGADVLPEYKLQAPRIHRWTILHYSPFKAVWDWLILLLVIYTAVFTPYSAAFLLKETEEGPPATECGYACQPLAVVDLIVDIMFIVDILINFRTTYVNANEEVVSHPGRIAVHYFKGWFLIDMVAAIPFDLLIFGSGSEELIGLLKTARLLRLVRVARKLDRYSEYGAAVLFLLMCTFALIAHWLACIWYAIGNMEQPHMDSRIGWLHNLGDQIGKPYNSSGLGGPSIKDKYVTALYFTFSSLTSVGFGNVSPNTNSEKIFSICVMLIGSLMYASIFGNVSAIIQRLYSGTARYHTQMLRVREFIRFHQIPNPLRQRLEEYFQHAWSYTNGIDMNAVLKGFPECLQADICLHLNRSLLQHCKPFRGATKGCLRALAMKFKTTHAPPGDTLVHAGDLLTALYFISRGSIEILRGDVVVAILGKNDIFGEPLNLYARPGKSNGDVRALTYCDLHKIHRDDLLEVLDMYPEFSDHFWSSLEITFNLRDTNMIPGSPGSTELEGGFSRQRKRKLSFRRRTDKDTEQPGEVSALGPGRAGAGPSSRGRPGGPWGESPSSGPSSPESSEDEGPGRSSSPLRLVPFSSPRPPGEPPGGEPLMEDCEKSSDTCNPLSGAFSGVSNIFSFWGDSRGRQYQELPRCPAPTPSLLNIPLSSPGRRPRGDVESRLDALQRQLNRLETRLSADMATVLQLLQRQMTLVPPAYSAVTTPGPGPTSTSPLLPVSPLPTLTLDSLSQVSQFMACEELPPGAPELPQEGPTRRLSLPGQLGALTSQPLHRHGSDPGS

Row | SMILES | hERG current change (%, negative = inhibition) at 1uM
1 | CCCc1nc2ccc(N)cc2c(=O)n1Cc1ccccc1Cl | 6.69%
2 | COc1ccc(-n2nc3c(N4CCC(C(=O)NCc5ccccc5C)CC4)nnc(C)c3c2C)cc1 | 12.1%
3 | COC(=O)Cc1csc(Nc2ccc(F)c(Cl)c2)n1 | -2.69%
4 | O=C(NCCCNC(=O)c1ccco1)c1ccc(Cl)cc1 | 6.25%
5 | Cc1ccccc1OCC(=O)N/N=C/c1ccc(N2CCOCC2)o1 | 9.47%
6 | O=C(C[n+]1ccc(/C=N/O)cc1)NC(=O)Nc1ccccc1 | 10.1%
7 | Cc1ccc(S(=O)(=O)NC(CC(C)C)C(=O)NCC(C)(C)N2CCOCC2)cc1 (stereo not drawn) | 15.3%
8 | O=C(COC(=O)Cn1cnc2ccccc2c1=O)Nc1ccc(Cl)c(C(F)(F)F)c1 | 2.13%
9 | Cc1ccccc1NC(=O)C(Cl)=C(Cl)Cl | 11.6%
10 | COc1ccc(C(=O)CSc2ccc(-c3ccco3)nn2)cc1 | -6.45%
11 | CCn1cc(CNC(=O)/C=C/c2ccc([N+](=O)[O-])cc2)cn1 | 4.05%
12 | CC(=O)Nc1ccc(C(=O)OCc2ccc(Cl)cc2)cc1 | 2.27%
13 | COc1cc(Br)c(CN2C(=O)NC3(CCCCCC3)C2=O)cc1OC | 14.5%
14 | CC(C)CCN(C(=O)CNC(=O)c1ccco1)C(C(=O)NC1CCCCC1)c1ccco1 (stereo not drawn) | 1.84%
15 | COc1ccc([C@@H]2CC=C(C(=O)O)[C@H](c3ccccc3)N2S(=O)(=O)c2ccc(C)cc2)cc1OC | 8.43%
16 | CCN1C(=O)[C@H]2[C@@H](c3ccc(C)cc3)N3C(=O)N(c4ccc(OC)cc4)C(=O)[C@@]3(C)[C@H]2C1=O | 9.86%
17 | CC1=NN(C(N)=S)C(=O)C1N=Nc1ccc(Cl)cc1 (stereo not drawn) | 6.7%
18 | COC(=O)CCNC(=O)c1nn(Cc2ccccc2)c(=O)c2ccccc12 | 8.03%
19 | COc1ccc(NC(=O)CN2CCc3ccccc3C2)cc1S(=O)(=O)N1CCOCC1 | 1.41%
20 | CC1CC(C)(C)NC(=S)N1CCCC(=O)Nc1ccc2c(c1)OCCO2 (stereo not drawn) | 4.15%
21 | CCOC(=O)c1nn(-c2ccc(F)cc2)c(=O)c(C#N)c1C | 40.1%
22 | COc1ccc(S(=O)(=O)NC(C)C(=O)Nc2cccc(C(C)=O)c2)cc1 (stereo not drawn) | 4.36%

Row | SMILES | hERG current change (%, negative = inhibition) at 1uM
23 | CC(CC(=O)Nc1ccc2c(c1)OCO2)c1ccccc1 (stereo not drawn) | 3.96%
24 | O=C(N/N=C/C=C/c1ccccc1[N+](=O)[O-])c1cc(-c2ccccc2)n[nH]1 | 9.72%
25 | CCOc1ccc(Nc2nc(N)c3ccccc3n2)cc1.Cl | 3.67%
26 | COCCn1c(SCc2cc(=O)n3cc(C)ccc3n2)nc2ccccc2c1=O | 7.79%
27 | O=C(c1ccccc1)N1CCN(Cc2cccc(Oc3ccccc3)c2)CC1 | 1.26%
28 | N#Cc1cccc(NC(=O)Nc2cccs2)c1 | 15.1%
29 | C/C(=C1/SC(=S)N(CCC(=O)O)C1=O)c1ccc(O)cc1 | 10.3%
30 | Cc1cc(N2CCN(C)CC2)nc2ccc(NC(=S)NCCC(C)C)cc12 | -0.13%
31 | CO[C@H]1[C@@H](OC)CC(OC2OC(CO)C(O)C(O)C2O)/C(=C\C#N)[C@@H]1O (stereo partly drawn) | 12.2%
32 | O=C(O)C(=O)O.O=C(c1ccco1)N1CCN(Cc2cccnc2)CC1 | 4.97%
33 | CCc1ccccc1NC(=O)CCN1C(=O)C2CC=CCC2C1=O (stereo not drawn) | 14%
34 | CCC1=Nc2cc(C(=O)NCCCOC(C)C)ccc2Sc2ccccc21 | 10.9%
35 | CCCn1nc(C(=O)NNC(=O)CCCOc2ccc(OC)cc2)c2ccccc2c1=O | -4.01%
36 | CCOc1ccc(NC(=O)NC(C)c2ccc3c(c2)OCO3)cc1 (stereo not drawn) | 10.1%
37 | O=C(CN1C(=O)c2ccccc2C1=O)Nc1ccc(-c2nc3ccccc3o2)cc1 | 2.99%
38 | Cc1ccc(N(CC(=O)Nc2cc(C)cc(C)c2)S(=O)(=O)c2cccc3nonc23)cc1 | 10.3%
39 | COc1ccc([C@H]2CC(=O)C=C(c3ccc(Cl)c(Cl)c3)C2)cc1 | 18.1%
40 | Cc1ccc(OCC(=O)c2cc(C)n(CC(F)(F)F)c2C)c([N+](=O)[O-])n1 | 12.1%
41 | COc1ccc(NC(=O)CSc2nnc3ccc(-c4ccccn4)nn23)c(OC)c1 | 13.4%
42 | COc1cccc(CNC(=O)CCNC(=O)C2CCN(S(=O)(=O)c3ccccc3)CC2)c1 | 7.83%
43 | O=C1c2ccccc2C(=O)N1OCCOCCOCCBr | 5.48%
44 | COc1ccc(OC)c(CN2CCN(CCc3ccccc3)C(CCO)C2)c1 (stereo not drawn) | -24.6%

Row | SMILES | hERG current change (%, negative = inhibition) at 1uM
45 | O=C1NCCCc2nc(Oc3ccccc3)sc21 | 10.2%
46 | CN=C1c2ccccc2CN1c1cccc(C(=O)OC)c1 | -0.628%
47 | Cc1sc2nc(CN(C(=O)NC3CCCCC3)C3CCCCC3)[nH]c(=O)c2c1C | -1.69%
48 | COc1ccc(-c2csc(Cc3nc(O)cs3)n2)cc1 | 13.3%
49 | CCOC(=O)C1CCN(Cc2ccc(C(=O)OC)cc2)CC1 | 1.03%
50 | Cc1nc(CCNC(=O)C2CCC(=O)N(CCc3cccc(F)c3)C2)sc1C (stereo not drawn) | 7.18%
51 | O=C(O)CC(C(=O)O)N1C(=O)/C(=C/C=C/c2ccco2)SC1=S (stereo not drawn) | 8.65%
52 | Cc1ccc2nc3c(cc2c1)c(NS(=O)(=O)c1ccccc1)nn3CC(C)C | -0.817%
53 | Fc1ccc(-c2csc3ncnc(Cl)c23)cc1 | 6.26%
54 | O=C(O)CSc1nnc(Cc2ccccc2)n1-c1ccccc1 | 8.05%
55 | CCOC(=O)c1ccc(NC(=O)C2CCN(C(=O)c3ccc(OC)c(OC)c3)CC2)cc1 | -19%
56 | COc1cc(OC)cc(-c2c(C#Cc3ccsc3)c3cc(-c4ccc5cc[nH]c5c4)ccc3n2C)c1 | 18.7%
57 | O=C(Nc1ccncc1)C1COc2ccccc2O1 (stereo not drawn) | 1.88%
58 | C=CCSc1nnc(Cn2c(=O)sc3ccccc32)n1C | -6.54%
59 | COC(=O)[C@@]12CCCN1[C@H](c1ccc(-c3ccccc3)cc1)[C@@H]1C(=O)N(C)C(=O)[C@@H]12.O=C(O)C(F)(F)F | 10.7%
60 | COc1ccc(/C(O)=C2\C(=O)C(=O)N(c3cc(C)on3)C2c2ccccc2OC)cc1 (stereo not drawn) | 10.6%
61 | Cl.OCCN(CCO)CC(O)CN(c1ccccc1)c1ccccc1 (stereo not drawn) | 8.22%
62 | O=C(NNc1ccccc1Cl)C(O)(c1cccc(C(F)(F)F)c1)c1cccc(C(F)(F)F)c1 | 8.29%
63 | CC(C)(C)c1o[nH]c(=O)c1CC(N)C(=O)O (stereo not drawn) | 15.7%
64 | COc1cc(NC(=O)c2cc3nc(C)cc(C)n3n2)c(OC)cc1Cl | 2.31%
65 | FC(F)(F)c1cc(CCN2C(=S)NC[C@@H]2CC2CCCCC2)cc(C(F)(F)F)c1 | 6.29%
66 | CC(C)CC(=O)Nc1ccccc1-c1nnn(CC(=O)N2CCc3ccccc3C2)n1 | 9.6%

Row | SMILES | hERG current change (%, negative = inhibition) at 1uM
67 | COc1ccc(N/C=C2/Sc3ccccc3NC2=O)cc1 | 18.5%
68 | C=CCC1(CC=C)CCCN1C(=O)CC1C(=O)NCCN1Cc1ccccc1OC (stereo not drawn) | -0.572%
69 | CCCCN(CCCC)C(=O)c1ccccc1NC(=O)CN1C(=O)c2ccccc2C1=O | 0.393%
70 | Fc1cccc(NC(=S)NCCc2ccccc2)c1 | 6.27%
71 | O=C(NCCCN1CCOCC1)c1ccc2c(c1)N(Cc1ccc(F)cc1)CCS2 | 14.1%
72 | Cl.OC12ONC(c3ccccn3)C1N1CCC2CC1 (stereo not drawn) | 12.2%
73 | CCCCc1c(O)nc(SCC(=O)NCCc2ccc(OC)c(OC)c2)[nH]c1=O | 0.245%
74 | CCc1ccc(-c2ccc3nnc(SCC(=O)NCC4CCCO4)n3n2)cc1 (stereo not drawn) | -18.9%
75 | C=CCn1c(Cc2ccccc2)nnc1SCc1nc2ccccc2c(=O)[nH]1 | 18.5%
76 | O=C1Nc2ccccc2N(O)N1c1cc(-c2cccc(Cl)c2)no1 | 11.3%
77 | Cc1oc(-c2ccccc2Cl)nc1CN1C(=O)CN=C(c2ccccc2)c2ccccc21 | 9.3%
78 | NC(=O)COC(=O)c1ccc2c(c1)S(=O)(=O)N=C1CCCCCN12 | 11%
79 | OC(CNCc1ccccc1F)COc1cccc2ccccc12 (stereo not drawn) | -0.346%
80 | CCOc1ccccc1/C=N/NC(=O)c1nnn(-c2nonc2N)c1CN1CCCC1 | 23.5%
81 | O=C(N/N=C/c1c[nH]c2ccccc12)c1cc(-c2ccc3ccccc3c2)n[nH]1 | 11.6%
82 | Cc1ccc(C(=O)Nc2ccc(Nc3ccccc3)cc2)cc1C | 20.3%
83 | CCOCCn1c(N2CCN(c3ccccc3)CC2)nc2c1c(=O)[nH]c(=O)n2C | 0.691%
84 | Cc1[nH]c2ccccc2c1C(c1ccncc1)N1CCCCC1 (stereo not drawn) | -0.231%
85 | NC(=O)c1ccccc1 | 16%
86 | CN(c1ccccc1)S(=O)(=O)c1ccc(C(=O)OCC(=O)N2CCOCC2)cc1 | 11.5%
87 | COc1ccc2nc(SCCN(C)C)[nH]c2c1.Cl | 14.1%
